Test results published in PubChem BioAssay (NCATS).
This list was built around the results that the source calls inconclusive (neither active nor inactive); the mix of calls is not that of the screen. For some of these results: No potency is given beside an inconclusive call; the fits are too rough. The source made the active and inactive calls. Calls come from the whole dose curve; as a rule, active = well fitted curve in the direction sought with a large enough effect; inconclusive = small, poorly fitted or top-dose-only effect, or another doubt; inactive = no such curve, though single readings can be large; an effect the other way counts as inactive or inconclusive. Where a SMILES comes first, the peptide text is derived from it. [ ]: non-standard residue; d: D form. ξ: configuration not given here. ξPhe(βξ-Me) = CC(c1ccccc1)C(N)C(=O)O; GABA = NCCCC(=O)O

What was measured:
[1] = system: Zika virus NS2B-NS3 protease (linked construct); assay: Primary screen NINDS Rhodamine qHTS for Zika virus inhibitors (AID 1347160); note: nearly all actives have a fitted effect of over 55% in size
Summary of the method: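 Percent inhibition, normalized to uninhibited and enzyme-free controls, is fitted to a 4-parameter Hill equation. Fluorescence change comes from a 15-min cleavage of 1.5 microM bis-peptide Rhodamine110 substrate by 25 nM linked NS2B-NS3 at room temperature.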

[2] = Primary qHTS for inhibitors of nuclear receptor binding SET domain protein 2 (NSD2) in an isogenic RCH-ACV NSD2 p.E1099K mutant (9B) (AID 1645876); conditions: activity change, negative = viability loss: at 44.9 µM (top of the series) unless noted; note: nearly all actives have a fitted effect of over 70% in size
CAOV3 = assay: Primary qHTS to identify gynecologic anti-cancer compounds using libraries of approved drugs and bioactive compounds (AID 1345084); conditions: Gynecologic cancer cell panel viability, ATPlite luminescence, 48 h; series mostly up to 57.5 µM; note: nearly all actives have a fitted effect of over 55% in size; for activity change, negative = cytotoxicity: % is set by controls: 0 for no effect and ±100 for the full control effect
Summary of the method: (§1)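 Measured: luminescence after ATPlite addition (15 min, RT). Exposure: 48 h, 37 C, 5% CO2.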

CASKI = assay: as above; conditions: Gynecologic cancer cell panel viability, ATPlite luminescence, 48 h; series mostly up to 57.5 µM
Summary of the method: as §1

Hek293T = assay: as above; conditions: Gynecologic cancer cell panel viability, ATPlite luminescence, 48 h, control line for the selectivity index; series mostly up to 57.5 µM
Summary of the method: as §1

OV90 = assay: as above; conditions: Gynecologic cancer cell panel viability, ATPlite luminescence, 48 h; series mostly up to 57.5 µM
Summary of the method: as §1

SKOV3 = assay: as above; conditions: Gynecologic cancer cell panel viability, ATPlite luminescence, 48 h; series mostly up to 57.5 µM
Summary of the method: as §1

[3] = P-glycoprotein substrates identified in KB-8-5-11 adenocarcinoma cell line, qHTS therapeutic library screen (AID 1346987); conditions: activity change, negative = cytotoxicity: at 44.5 µM (top of the series); note: nearly all actives have a fitted effect of over 65% in size
Summary of the method: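 P-gp-mediated resistance screen: KB-8-5-11 cells treated 72 h with compounds in dose-response. CellTiter-Glo viability.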

[4] = Primary qHTS for inhibitors of nuclear receptor binding SET domain protein 2 (NSD2) in an RCH-ACV wild type WT cells (2C) (AID 1645877); conditions: activity change, negative = cell killing: at 44.9 µM (top of the series) unless noted; note: nearly all actives have a fitted effect of over 70% in size
Tov112D = assay: Primary qHTS to identify gynecologic anti-cancer compounds using libraries of approved drugs and bioactive compounds (AID 1345084); conditions: Gynecologic cancer cell panel viability, ATPlite luminescence, 48 h; series mostly up to 57.5 µM; note: nearly all actives have a fitted effect of over 55% in size; for activity change, negative = cytotoxicity: % is set by controls: 0 for no effect and ±100 for the full control effect
Summary of the method: as §1

[5] = Primary qHTS for small molecule stabilizers of the endoplasmic reticulum resident proteome: Secreted ER Calcium Modulated Protein (SERCaMP) assay (AID 1508630); conditions: SH-SY5Y GLuc-SERCaMP (Gaussia luciferase released on ER calcium loss) secretion, thapsigargin, luminescence; activity change, negative = inhibition: at 38.4 µM (top of the series) unless noted
Summary of the method: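 GLuc-SERCaMP-expressing SH-SY5Y cells, pretreated 16 h with compound, are challenged with thapsigargin to empty ER calcium stores; after 4 h, coelenterazine is added directly to the medium and luminescence is imaged.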

PA-1 = assay: Primary qHTS to identify gynecologic anti-cancer compounds using libraries of approved drugs and bioactive compounds (AID 1345084); conditions: Gynecologic cancer cell panel viability, ATPlite luminescence, 48 h; series mostly up to 57.5 µM; note: nearly all actives have a fitted effect of over 55% in size; for activity change, negative = cytotoxicity: % is set by controls: 0 for no effect and ±100 for the full control effect
Summary of the method: as §1

[6] = Primary fluorescence-based thiol-reactive (MSTI) qHTS assay for identification of artifact compounds. (AID 1845221);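 note: thiol-reactive compounds lower the probe fluorescence signal; nearly all actives have a fitted effect of over 65% in size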
Summary of the method: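 Reactivity toward the thiol probe MSTI (4 uM) is scored by fluorescence at Ex/Em 525/598 nm after 1 h at room temperature. Acetyl-MSTI and MSTI define the activity scale.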

[7] = Primary redox qHTS assay for identification of artifact compounds. (AID 1845223)
Summary of the method: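 Amplex Red (25 uM) and HRP (250 mU/mL) in HBSS, with compounds for 15 min, then 250 uM DTT for 30 min, room temperature, dark. Fluorescence 525/598 nm read; normalized to DMSO and 10 uM DA3003; Hill fit.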

Tov-21-G = assay: Primary qHTS to identify gynecologic anti-cancer compounds using libraries of approved drugs and bioactive compounds (AID 1345084); conditions: Gynecologic cancer cell panel viability, ATPlite luminescence, 48 h; series mostly up to 57.5 µM; note: nearly all actives have a fitted effect of over 55% in size; for activity change, negative = cytotoxicity: % is set by controls: 0 for no effect and ±100 for the full control effect
Summary of the method: as §1

[8] = system: Zika virus NS2B-NS3 protease (unlinked complex); assay: Primary screen GU Rhodamine qHTS for Zika virus inhibitors: Unlinked NS2B-NS3 protease assay (AID 1347159); conditions: Recombinant ZIKV NS2B-NS3 protease, Rhodamine110 substrate fluorescence; activity change, negative = inhibition: at 107 µM (top of the series); note: nearly all actives have a fitted effect of over 60% in size
Summary of the method: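 Compounds, tested up to 114 microM, were incubated for 15 minutes with 25 nM unlinked NS2B-NS3 protease at pH 8.0. Cleavage of 1.5 microM Rhodamine110 substrate was then followed by fluorescence for 15 minutes.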
Potency is the fitted concentration of half-maximal effect; tags give direction and shape of the fitted curve.

With `C=C1CC2(C(=O)O)CC1CCC2C1(C)CCCC2(C)C(=O)OC(O)C21` (stereo not drawn) as the molecule, how does the Potency [1] read?
Its Potency is inconclusive [inhibitor, single point].

And the Potency [2]?
Its Potency is “inactive”.

What about the Potency (CAOV3) of the same molecule?
The Potency was “inactive”.

And the Potency (CASKI)?
Its Potency is inconclusive [rising, single point].

What about the Potency (Hek293T) of the same molecule?
The Potency was “inactive”.

What about the Potency (OV90) of the same molecule?
The Potency was “inactive”.

And the Potency (SKOV3)?
Its Potency is “inactive”.

Which activity change, negative = cytotoxicity [3] does the source give for `NC(=O)C(CCC(F)(F)F)N(Cc1ccc(-c2ncon2)cc1F)S(=O)(=O)c1ccc(Cl)cc1` (stereo not drawn) here?
The activity change, negative = cytotoxicity was inconclusive: -42.8% [inhibitor].

What about the Potency [2] of the same molecule?
Its Potency is inconclusive [inhibitor, single point].

What about the Potency [4] of the same molecule?
The Potency was inconclusive [inhibitor, partial curve].

And the Potency (CAOV3)?
Its Potency is inconclusive [cytotoxic, single point].

What about the Potency (CASKI) of the same molecule?
Its Potency is “inactive”.

What about the Potency (Tov112D) of the same molecule?
Its Potency is “inactive”.

For `C=C1C(OC(C)=O)[C@@]23CCC4[C@](C)(C(=O)O)CCC[C@@]4(C)[C@]2(O)CC[C@H]1C3` (stereo partly drawn), which Potency (CAOV3) is on record?
Its Potency is “inactive”.

What about the Potency (CASKI) of the same molecule?
Its Potency is “inactive”.

And the Potency (SKOV3)?
The Potency was inconclusive [rising, partial curve].

Which Potency [3] does the source give for `COc1ccc([C@@H]2Sc3ccccc3N(CCN(C)C)C(=O)[C@@H]2OC(C)=O)cc1` here?
The Potency was active: 20.6 µM.

And the Potency [5]?
Its Potency is inconclusive [inhibitor, single point].

And the Potency [2]?
Its Potency is inconclusive [inhibitor, single point].

And the Potency [4]?
Its Potency is inconclusive [inhibitor, single point].

And the Potency (CAOV3)?
The Potency was inconclusive [rising, full curve, poor fit].

What about the Potency (CASKI) of the same molecule?
Its Potency is “inactive”.

And the Potency (PA-1)?
The Potency was “inactive”.

For `C=C1C(OC2OCC(O)C(O)C2O)CC2C(C)(C)C(O)CCC2(C)C1CC/C(C)=C\CO` (stereo not drawn), which Potency [3] is on record?
The Potency was “inactive”.

And the Potency [2]?
The Potency was inconclusive [inhibitor, single point].

What about the Potency [6] of the same molecule?
The Potency was inconclusive [inhibitor, single point].

And the Potency [7]?
The Potency was inconclusive [activator, partial curve, poor fit].

What about the Potency (CAOV3) of the same molecule?
The Potency was inconclusive [cytotoxic, full curve, poor fit].

And the Potency (CASKI)?
The Potency was “inactive”.

What about the Potency (Hek293T) of the same molecule?
The Potency was “inactive”.

What about the Potency (OV90) of the same molecule?
The Potency was “inactive”.

And the Potency (Tov-21-G)?
Its Potency is “inactive”.

Which Potency (CAOV3) does the source give for `C=C(CCO[C@@H]1O[C@H](CO)[C@@H](O)[C@H](O)[C@H]1O)C(=O)O` here?
The Potency was “inactive”.

Which results are given for `C=CC(=O)N1CCCC(n2nc(-c3ccc(Oc4ccccc4)cc3)c3c(N)ncnc32)C1` (stereo not drawn)?
Potency [3]: inconclusive [inhibitor, partial curve]; Potency [6]: inconclusive [inhibitor, single point]; Potency (CAOV3): inactive; Potency (CASKI): inconclusive [cytotoxic, single point]; Potency (PA-1): inconclusive [cytotoxic, single point]; Potency (SKOV3): inconclusive [cytotoxic, full curve, poor fit]; Potency (Tov-21-G): inconclusive [cytotoxic, single point]

For `COc1cc(C(CO)CO[C@@H]2O[C@H](CO)[C@@H](O)[C@H](O)[C@H]2O)ccc1O` (stereo partly drawn), which Potency (CAOV3) is on record?
The Potency was “inactive”.

What about the Potency (CASKI) of the same molecule?
The Potency was inconclusive [cytotoxic, single point].

For `C/C=C(\C)C(=O)O[C@@H]1CC2[C@@H](CC=C3C[C@@H](O[C@H]4C[C@H](OC)[C@H](O[C@H]5C[C@H](OC)[C@H](O[C@H]6C[C@H](OC)[C@H](O[C@H]7C[C@@H](OC)[C@H](O[C@@H]8O[C@H](CO)[C@@H](O)[C@H](O)[C@H]8O)[C@@H](C)O7)[C@@H](C)O6)[C@@H](C)O5)[C@@H](C)O4)CC[C@@]32C)[C@@]2(O)CC[C@H](C(C)=O)[C@@]12C` (stereo partly drawn), which activity change, negative = cytotoxicity (CAOV3) is on record?
Its activity change, negative = cytotoxicity is inactive: -0.474% [at 6.55 µM].

Which Potency [8] does the source give for `COc1ccc(OC2OC(CO[C@@H]3O[C@@H](C)[C@H](O)[C@@H](O)[C@H]3O)C(O)C(O)C2O)cc1OC` (stereo partly drawn) here?
Its Potency is inconclusive [inhibitor, full curve].

What about the Potency (CAOV3) of the same molecule?
Its Potency is “inactive”.

What about the Potency (CASKI) of the same molecule?
The Potency was “inactive”.

And the Potency (Hek293T)?
The Potency was “inactive”.

For `CC1NC(=O)CCCNC(=O)C(Cc2c[nH]c3ccccc23)NC(=O)C(C)NC(=O)C(C(C)C)NC(=O)C(C(C)c2ccccc2)NC(=O)C(C(C)C)NC1=O` (stereo not drawn) (cyclo([GABA]AV[ξPhe(βξ-Me)]VAW); configuration not given here), which Potency [4] is on record?
The Potency was “inactive”.

What about the Potency (CAOV3) of the same molecule?
The Potency was “inactive”.

What about the Potency (CASKI) of the same molecule?
Its Potency is “inactive”.

With `C/C=C1\[C@H](O[C@@H]2O[C@H](CO)[C@@H](O)[C@H](O)[C@H]2O)OC=C(C(=O)OC)[C@H]1CC(=O)O` as the molecule, how does the Potency (CAOV3) read?
Its Potency is “inactive”.

For `CC1=CC2C(CC1OC1OC(CO)C(O)C(O)C1O)C(C)CC(=O)C2C(C)C` (stereo not drawn), which Potency [8] is on record?
Its Potency is inconclusive [inhibitor, full curve].

And the Potency [1]?
The Potency was inconclusive [inhibitor, partial curve, poor fit].

What about the Potency [6] of the same molecule?
Its Potency is active: 3.69 µM.

And the Potency [7]?
Its Potency is inconclusive [activator, single point].

What about the Potency (CAOV3) of the same molecule?
Its Potency is “inactive”.

What about the Potency (CASKI) of the same molecule?
Its Potency is inconclusive [rising, single point].

And the Potency (SKOV3)?
The Potency was “inactive”.
